Consider 55 molecules from publication PMC4336329 (PLoS ONE, 2015).

About 2,200 (0.71%) of roughly 310,000 compounds showed an effect of 50% or more. The effect is printed as a negative number. This is one part of the list.

human ether-à-go-go-related gene (hERG) potassium channel, sequence (Q12809 whole entry, looked up): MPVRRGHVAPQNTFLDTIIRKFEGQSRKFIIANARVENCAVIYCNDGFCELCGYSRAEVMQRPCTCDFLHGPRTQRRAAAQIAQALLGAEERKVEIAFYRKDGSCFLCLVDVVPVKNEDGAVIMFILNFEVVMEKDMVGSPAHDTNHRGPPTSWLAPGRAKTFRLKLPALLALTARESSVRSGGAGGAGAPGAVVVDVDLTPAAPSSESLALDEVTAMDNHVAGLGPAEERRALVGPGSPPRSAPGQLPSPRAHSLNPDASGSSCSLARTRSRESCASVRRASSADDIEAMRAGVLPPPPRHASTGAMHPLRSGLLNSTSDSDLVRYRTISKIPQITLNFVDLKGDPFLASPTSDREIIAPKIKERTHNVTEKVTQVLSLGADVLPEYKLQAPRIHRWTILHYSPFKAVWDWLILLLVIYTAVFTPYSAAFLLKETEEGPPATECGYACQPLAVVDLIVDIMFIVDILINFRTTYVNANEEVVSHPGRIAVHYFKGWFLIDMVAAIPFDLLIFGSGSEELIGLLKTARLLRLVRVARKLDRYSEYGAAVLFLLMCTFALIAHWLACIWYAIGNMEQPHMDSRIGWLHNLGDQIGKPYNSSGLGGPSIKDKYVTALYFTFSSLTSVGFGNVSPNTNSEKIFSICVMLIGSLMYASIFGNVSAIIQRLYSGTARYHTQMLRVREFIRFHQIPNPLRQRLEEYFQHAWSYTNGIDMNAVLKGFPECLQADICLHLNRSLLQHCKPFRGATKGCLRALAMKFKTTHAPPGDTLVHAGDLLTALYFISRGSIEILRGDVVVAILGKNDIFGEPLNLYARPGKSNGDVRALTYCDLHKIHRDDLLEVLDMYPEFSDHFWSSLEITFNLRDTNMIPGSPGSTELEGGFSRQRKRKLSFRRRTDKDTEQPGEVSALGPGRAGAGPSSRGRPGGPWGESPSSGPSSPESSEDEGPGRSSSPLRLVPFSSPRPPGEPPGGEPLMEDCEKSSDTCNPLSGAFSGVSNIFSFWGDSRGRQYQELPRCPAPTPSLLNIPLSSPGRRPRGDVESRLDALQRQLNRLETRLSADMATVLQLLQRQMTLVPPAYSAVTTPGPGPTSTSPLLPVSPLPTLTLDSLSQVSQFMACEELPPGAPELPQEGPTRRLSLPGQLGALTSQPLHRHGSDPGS

The assay addresses human ether-à-go-go-related gene (hERG) potassium channel (human, UniProt Q12809). Nature of the assay: primary screen, population patch clamp on CHO cells stably expressing hERG.
For the molecule `O=C(N/N=C/c1cccnc1)c1cc(-c2ccc(Br)cc2)nc2ccccc12`, the “hERG current change (%, negative = inhibition) at 1uM” value came to 17.1%.

Regarding `CCC(=O)NC(C)C(c1cccs1)N1CCOCC1` (stereo not shown), the “hERG current change (%, negative = inhibition) at 1uM” value is given as 1.95%.

With `CC(=O)CC(=O)NC(=NC1CCCCC1)Nc1nc(C)cc(C)n1`, the “hERG current change (%, negative = inhibition) at 1uM” value is 15.9%.

As for `Cc1nc2ccccc2c2ncccc12`, the “hERG current change (%, negative = inhibition) at 1uM” value turned out to be 6.96%.

As for `CC(C)=C(NC(=O)c1ccccc1)C(N)=O`, the “hERG current change (%, negative = inhibition) at 1uM” value is recorded as 1.4%.

For the molecule `O=C(CCn1c(=O)sc2ccccc21)NCc1ccco1`, the “hERG current change (%, negative = inhibition) at 1uM” value was 7.61%.

Regarding `COC(=O)C1=C(C(=O)c2ccc(C)cc2)C(c2ccc(O)c(OC)c2)n2nnnc2N1` (stereo not shown), the “hERG current change (%, negative = inhibition) at 1uM” value is given as 10.6%.

In the case of `Cc1ccc(N2C(=O)CSC2c2c(F)cccc2Cl)cc1` (stereo not shown), the “hERG current change (%, negative = inhibition) at 1uM” value is 12.2%.

Turning to `CCN(C(=O)CN1C(=O)COc2ccc(S(=O)(=O)N3CCOCC3)cc21)c1ccc(OC)cc1`, the “hERG current change (%, negative = inhibition) at 1uM” value was 11.1%.

Regarding `O=C1NN(c2ccccc2)C(=O)/C1=C/c1ccc(Sc2cccc3ccccc23)o1`, the “hERG current change (%, negative = inhibition) at 1uM” value was found to be 12.6%.

As for `CCc1ccc(S(=O)(=O)/N=C2\C=C(Nc3ccc(C(=O)O)cc3)C(=O)c3ccccc32)cc1`, the “hERG current change (%, negative = inhibition) at 1uM” value is recorded as 10.6%.

Regarding `O=[N+]([O-])c1ccc(-c2csc(N3CCc4ccccc4C3)n2)cc1`, the “hERG current change (%, negative = inhibition) at 1uM” value is recorded as -0.46%.

For the molecule `O=S(=O)(c1ccc(Cl)s1)N1CCN(CCc2ccccc2)CC1`, the “hERG current change (%, negative = inhibition) at 1uM” value stood at 0.956%.

For `CC(C)NC(=O)CN(Cc1ccc(F)cc1)C(=O)CCC(=O)Nc1ccccn1`, the “hERG current change (%, negative = inhibition) at 1uM” value amounted to 12%.

Consider `CCOC(=O)Cc1csc(NC(=O)c2cc3ccccc3o2)n1`, for which the “hERG current change (%, negative = inhibition) at 1uM” value came out at 2.01%.

Turning to `O=C(COC(=O)/C=C/c1ccccc1)NCCNC(=O)COC(=O)/C=C/c1ccccc1`, the “hERG current change (%, negative = inhibition) at 1uM” value is reported as 9.44%.

In the case of `NC(=O)CSc1nnc(-c2ccc(S(=O)(=O)N3CCCC3)cc2)n1CC1CCCO1` (stereo not shown), the “hERG current change (%, negative = inhibition) at 1uM” value is reported as -5.87%.

On to `Nc1ncnc2c1ncn2[C@@H]1O[C@H](CO)C[C@H]1O`, for which the “hERG current change (%, negative = inhibition) at 1uM” value is given as 16%.

`Cc1ccc(NS(=O)(=O)c2ccc(CCC(=O)O)cc2)cc1`: the “hERG current change (%, negative = inhibition) at 1uM” value is given as 5.05%.

For the molecule `COCc1nnc(NC(=O)C2CC(=O)N(C3CCCCC3)C2)s1` (stereo not shown), the “hERG current change (%, negative = inhibition) at 1uM” value was 6.49%.

In the case of `COCC1CCCCN1C(=O)c1ccc2oc(CCCc3ccccc3)nc2c1` (stereo not shown), the “hERG current change (%, negative = inhibition) at 1uM” value was 3.91%.

Turning to `COc1cc([N+](=O)[O-])ccc1NC(=O)c1cccc(NC(=O)C(C)C)c1`, the “hERG current change (%, negative = inhibition) at 1uM” value is listed as 14.6%.

With `S=C(Nc1ccc(Cl)cc1)Nc1ccc2c(c1)OCCO2`, the “hERG current change (%, negative = inhibition) at 1uM” value worked out at 9.87%.

Regarding `C/C(=N\NC(=O)c1csc2ccccc12)c1ccc(O)cc1`, the “hERG current change (%, negative = inhibition) at 1uM” value came out at 7.42%.

With `COc1ccc(F)cc1COc1nc(C)nc2ccccc12`, the “hERG current change (%, negative = inhibition) at 1uM” value is given as 2.38%.

In the case of `O=C(Cn1cncc1-c1ccc([N+](=O)[O-])cc1)Nc1ccccc1F`, the “hERG current change (%, negative = inhibition) at 1uM” value is on record as -0.387%.

Turning to `Cc1cc([N+](=O)[O-])nn1CC(=O)Nc1sc2c(c1C(N)=O)CCCC2`, the “hERG current change (%, negative = inhibition) at 1uM” value was found to be 2.6%.

With `Clc1ccccc1C1SCC2Nc3ccccc3CN21` (stereo not shown), the “hERG current change (%, negative = inhibition) at 1uM” value is 9.81%.

`Cc1ccc(CNC(=O)Cn2cc(C(F)(F)F)ccc2=O)cc1`: the “hERG current change (%, negative = inhibition) at 1uM” value is recorded as 15.8%.

On to `CCCCCCCC(=O)OCC(=O)[C@@]1(O)CC[C@H]2[C@@H]3CCC4=CC(=O)CC[C@]4(C)[C@H]3[C@@H](O)C[C@@]21C`, for which the “hERG current change (%, negative = inhibition) at 1uM” value was 12.2%.

On to `Oc1cc(-n2cccn2)c(O)cc1-n1cccn1`, for which the “hERG current change (%, negative = inhibition) at 1uM” value was 14%.

On to `COc1ccccc1/C=N/NC1=NCCCCC1.Cl`, for which the “hERG current change (%, negative = inhibition) at 1uM” value was determined as 5.68%.

`C/C(=N/NC(=O)c1ccc(C(C)(C)C)cc1)c1ccccn1`: the “hERG current change (%, negative = inhibition) at 1uM” value is on record as 4.4%.

Regarding `O=C(Cc1cccc2ccccc12)Nc1ccc(N2CCOCC2)cc1`, the “hERG current change (%, negative = inhibition) at 1uM” value is 6.24%.

Take `Cl.OC(CCN1CCCCC1)(c1ccccc1)C1CCCCC1` (stereo not shown): the “hERG current change (%, negative = inhibition) at 1uM” value is reported as -0.0042%.

As to `CCOC(=O)c1sc2c(c1C)c(=O)n(Cc1ccccc1)c(=O)n2CCN(C)C`, the “hERG current change (%, negative = inhibition) at 1uM” value is -21.7%.

For `CCOC(=O)c1c(N)sc(C(=O)OC)c1C`, the “hERG current change (%, negative = inhibition) at 1uM” value was determined as 13.9%.

In the case of `COc1ccc(-c2csc(Nc3ccc(S(=O)(=O)Nc4cc(C)on4)cc3)n2)cc1C`, the “hERG current change (%, negative = inhibition) at 1uM” value worked out at 6.61%.

As for `CCOc1ccc(OCCC(=O)OCC(=O)Nc2ccc(C)c(S(=O)(=O)N3CCCCC3)c2)cc1`, the “hERG current change (%, negative = inhibition) at 1uM” value is reported as -0.84%.

For the molecule `O=C(Nc1nncs1)c1cccc(S(=O)(=O)N2CCCCC2)c1`, the “hERG current change (%, negative = inhibition) at 1uM” value is reported as -13.9%.

`COc1ccc(NC(=O)COC(=O)c2ccncc2)c(OC)c1`: the “hERG current change (%, negative = inhibition) at 1uM” value is recorded as -0.39%.

Turning to `COC(CSc1nc(N)c2c3c(sc2n1)CN(C)CC3)OC`, the “hERG current change (%, negative = inhibition) at 1uM” value turned out to be 17.2%.

Turning to `Cc1ccc(CNC(=O)C23CN(Cc4ccccc4)CC2C(c2cccc([N+](=O)[O-])c2)=NO3)cc1` (stereo not shown), the “hERG current change (%, negative = inhibition) at 1uM” value is on record as 11.6%.

As for `CN(N)c1nc(-c2ccccc2)nnc1C(F)(F)F`, the “hERG current change (%, negative = inhibition) at 1uM” value is reported as 9.07%.

`CCC1(c2ccc(F)cc2)NC(=O)N(CC(=O)Nc2ccc(N3CCCCC3)cc2)C1=O` (stereo not shown): the “hERG current change (%, negative = inhibition) at 1uM” value was found to be 7.99%.

On to `Cc1nn(C(C)C(=O)NNC(=S)Nc2ccc(F)cc2)c(C)c1[N+](=O)[O-]` (stereo not shown), for which the “hERG current change (%, negative = inhibition) at 1uM” value came to 9.44%.

As for `Cc1nn(Cc2ccccc2)c(C)c1C(=O)OCC(=O)NC1CCS(=O)(=O)C1` (stereo not shown), the “hERG current change (%, negative = inhibition) at 1uM” value is recorded as 0.565%.

With `Cc1ccc(C(c2sc3nc(C)nn3c2O)N2CCN(c3ccccc3F)CC2)cc1` (stereo not shown), the “hERG current change (%, negative = inhibition) at 1uM” value is -11.7%.

`O=C(c1ccco1)N1CCN(C(=O)C(Cc2ccccc2)NS(=O)(=O)c2cccs2)CC1` (stereo not shown): the “hERG current change (%, negative = inhibition) at 1uM” value was -13.4%.

Consider `O=C(Nc1ccccc1F)c1ccc(Cn2cc(Br)cn2)cc1`, for which the “hERG current change (%, negative = inhibition) at 1uM” value is listed as 0.738%.

Turning to `Cc1cccc(C(=O)NNC(=O)C2CCN(C(=O)OC(C)(C)C)CC2)c1`, the “hERG current change (%, negative = inhibition) at 1uM” value is reported as 14.9%.

On to `CCS(=O)(=O)c1nc(S(=O)(=O)c2ccc(Cl)cc2)c(N2CCCC2)s1`, for which the “hERG current change (%, negative = inhibition) at 1uM” value worked out at 13.1%.

For `COc1ccccc1C1c2ccc3ccccc3c2Oc2ncn(CCCO)c(=N)c21` (stereo not shown), the “hERG current change (%, negative = inhibition) at 1uM” value is given as -5.99%.

With `COc1cc(C(=O)NNC(=O)C2CSC3(C)CCC(=O)N23)cc(OC)c1OC` (stereo not shown), the “hERG current change (%, negative = inhibition) at 1uM” value stood at 6.68%.

For the molecule `C[n+]1cn(Cc2ccc(C#N)cc2)c2ccccc21.[Cl-]`, the “hERG current change (%, negative = inhibition) at 1uM” value was -0.811%.
